In article PMC4336329 (PLoS ONE, 2015):
The whole screen tested about 310,000 compounds, of which about 2,200 (0.71%) showed an effect of 50% or more. The effect is printed as a negative number. Some of the results follow.

biological target: human ether-à-go-go-related gene (hERG) potassium channel (human, UniProt Q12809); experiment: primary screen, population patch clamp on CHO cells stably expressing hERG
Sequence (Q12809 whole entry, looked up): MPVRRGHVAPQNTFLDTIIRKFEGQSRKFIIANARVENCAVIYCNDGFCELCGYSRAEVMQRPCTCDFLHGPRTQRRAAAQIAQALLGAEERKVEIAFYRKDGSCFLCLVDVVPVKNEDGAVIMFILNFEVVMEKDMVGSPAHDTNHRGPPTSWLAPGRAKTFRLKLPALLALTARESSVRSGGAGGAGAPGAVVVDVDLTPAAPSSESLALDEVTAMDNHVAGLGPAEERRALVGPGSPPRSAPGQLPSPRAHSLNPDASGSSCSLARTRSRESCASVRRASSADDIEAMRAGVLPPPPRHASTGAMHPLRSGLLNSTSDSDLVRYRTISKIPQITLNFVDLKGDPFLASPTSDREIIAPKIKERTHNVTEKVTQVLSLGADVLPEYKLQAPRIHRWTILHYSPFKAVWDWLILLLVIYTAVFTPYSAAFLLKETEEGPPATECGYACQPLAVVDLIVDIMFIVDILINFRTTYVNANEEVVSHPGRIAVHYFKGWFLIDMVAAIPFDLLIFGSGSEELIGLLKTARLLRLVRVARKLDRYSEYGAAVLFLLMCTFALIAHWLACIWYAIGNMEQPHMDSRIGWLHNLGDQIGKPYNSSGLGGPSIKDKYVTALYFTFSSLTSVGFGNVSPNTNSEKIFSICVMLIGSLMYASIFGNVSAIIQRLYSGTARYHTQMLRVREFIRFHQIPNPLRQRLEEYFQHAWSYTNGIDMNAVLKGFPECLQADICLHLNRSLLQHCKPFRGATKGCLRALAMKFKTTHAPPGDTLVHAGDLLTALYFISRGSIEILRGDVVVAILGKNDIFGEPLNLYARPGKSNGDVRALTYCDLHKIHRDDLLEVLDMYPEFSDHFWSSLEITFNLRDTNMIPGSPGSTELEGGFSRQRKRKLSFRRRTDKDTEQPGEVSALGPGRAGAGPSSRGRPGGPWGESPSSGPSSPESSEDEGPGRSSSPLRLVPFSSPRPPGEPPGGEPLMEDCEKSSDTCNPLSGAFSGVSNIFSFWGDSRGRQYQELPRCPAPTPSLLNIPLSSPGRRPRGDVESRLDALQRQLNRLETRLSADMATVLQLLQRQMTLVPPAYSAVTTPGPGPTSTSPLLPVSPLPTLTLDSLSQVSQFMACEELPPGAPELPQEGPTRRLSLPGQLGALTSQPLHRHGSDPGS

Compound	hERG current change (%, negative = inhibition) at 1uM [%]
CN1C(=O)C(=O)N(c2cccc(C(F)(F)F)c2)C1=O	13.2
COc1cc(/C=N/NC(=O)C(=O)NCc2cccnc2)cc(OC)c1OC	11.9
CCn1cc(S(=O)(=O)c2ccccc2)c(=O)c2cc(F)c(N3CCN(C)CC3)cc21	12.4
COc1ccc(OC)c(NC(=O)c2cnc3n(c2=O)CCS3)c1	7.6
N#Cc1c(NC(=O)CSc2n[nH]c(Cc3ccccc3)n2)oc(-c2ccccc2)c1-c1ccccc1	7.79
O=C(NCCc1ccc(Cl)cc1)C1CCCN(c2ncnc3c2nc2n3CCCCC2)C1 (stereo not drawn)	-8.07
Cc1ccc(C(=O)NCC(=O)OCC(=O)NCCNC(=O)COC(=O)CNC(=O)c2ccc(C)cc2)cc1	9.41
CC(C)OC(=O)c1sc2nc(-c3ccccc3)ccc2c1N	13.2
COc1ccccc1CC(=O)N1CCN(c2ccc([N+](=O)[O-])cc2)CC1	-8.15
COc1cc(C2Nc3ccccc3C(=O)N2NS(C)(=O)=O)c([N+](=O)[O-])cc1OC (stereo not drawn)	6.71
COc1cccc(CNC(=O)c2cc(C3CC3)nc3c2cnn3C(C)C)c1	-0.644
Cc1ccc(-n2c(N)c(C(=O)NCc3cccnc3)sc2=S)cc1	17.7
Cc1ccc(OC(=O)c2oc3ccc(F)cc3c2C)c(C)c1	-0.814
CC(=O)c1ccc(NC(=O)CSC2=NS(=O)(=O)c3cc(Cl)ccc3N2)cc1	17
O=C(COC(=O)/C=C/c1nc2ccccc2s1)Nc1cccc(Cl)c1Cl	9.67
O=[N+]([O-])c1cccc2c(N3CCOCC3)ccnc12	10
CC(C)(C)N1CC(C(=O)O)CC1=O (stereo not drawn)	16.8
Nc1ccc(Cl)cc1C(=O)c1ccccc1Cl	14
C/C(NC1CCCCC1)=C(/C#N)C(=O)NCCN1CCOCC1	5.52
COc1ccccc1C(=O)NC(C)c1cccc2ccccc12 (stereo not drawn)	12.4
CCOc1ccc2ccccc2c1CNc1nnnn1CC	4.39
CC(=O)c1c(C(C)=O)c(C)n(-c2nc(-c3ccc(C)c(C)c3)c(C)s2)c1C	17
N#Cc1nc(-c2ccccc2F)oc1N1CCCC1	5.59
Cc1ccc(C(=O)NCCC(=O)N2CCC3(CC2)NCCc2[nH]cnc23)cc1C	9.47
